# Test results published in PubChem BioAssay AID1656 (Sanford-Burnham Center for Chemical Genomics, 2009).
# Some of the results follow. These are further read-outs of the screen, such as a control signal, another cell line or another target. No call is given for them. Most of these compounds were active or inconclusive in the main read-out, so they are no random draw.
# Assay: inhibitors of hepatocyte lipid droplet formation, primary screen, imaging, high-throughput imaging, BODIPY stain (AID 1656);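 further: cells counted across two imaged fields per well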
# Details: AML12 mouse hepatocytes, oleate lipid droplets, measured here: cell count, cytotoxicity flag, at 6.5 µM
# In short: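 Test system: AML12 hepatocytes (mouse); reagent: oleate loading, 100 µM; dosing: one dose, 6.5 µM compound; incubation: overnight exposure; signal: fluorescence imaging, 20x objective, two fields per well; read-out basis: % inhibition of corrected integrated BODIPY droplet signal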
row,Compound,cell count [cells]
1,Nc1cc(Cl)c2nonc2c1[N+](=O)[O-],562
2,CCC1(OC(=O)CN)C(=O)OCc2c1cc1n(c2=O)Cc2cc3ccccc3nc2-1 (centres undefined),251
3,CC(C)[C@]12O[C@H]1[C@@H]1O[C@]13[C@]1(O[C@H]1C[C@H]1C4=C(CC[C@@]13C)C(=O)OC4)[C@@H]2O,341
4,O=c1[nH]c(=O)n(-c2ccccc2)c(O)c1/C=C1/C(c2ccccc2)=Nc2ccccc21,272
5,COc1cccc(OC)c1C1=NCC(=O)Nc2c1oc1ccc(Br)cc21,256
6,COC(=O)C1CN(C#N)N(c2ccc(Cl)cc2)C12c1ccccc1-c1ccccc12 (centres undefined),586
7,NC(=S)c1cn(C2OC(CO)C(O)C2O)c2ncnc(N)c12 (centres undefined),254
8,CC(=O)OC(C)(C)/C=C/C(=O)C(C)(O)C1[C@H](O)C[C@@]2(C)C3CC=C4C(CC[C@@H](O)C4(C)C)[C@]3(CO)C(=O)C[C@]12C (some centres undefined),157
9,C#CCOc1cc(C2C3=C(COC3=O)Nc3cc4c(cc32)OCO4)ccc1OC (centres undefined),139
10,Cc1cccc(-n2c(/C=C/c3ccc([N+](=O)[O-])o3)nc3ccccc3c2=O)c1,138
11,Cc1nc2c(=O)n(C)c(=O)nc-2n(C)n1,234
12,C=C1C(=O)O[C@@H]2C[C@@H](C)[C@@H]3C=CC(=O)[C@@]3(C)[C@@H](OC(=O)CC(=O)O[C@H]3[C@@H]4C(=C)C(=O)O[C@@H]4C[C@@H](C)[C@@H]4C=CC(=O)[C@]43C)[C@H]12,48
13,CC1CCC/C=C/C2CC(O)CC2C(O)/C=C/C(=O)O1 (centres undefined),361
14,CC1(C)CN=C(Nc2ccc(F)c(Cl)c2)S1,631
15,NC(=O)c1cn(C2OC(CO)C(O)C2O)c2ncnc(N)c12 (centres undefined),202
16,CC1=CC(=C2C(=O)NC(=S)NC2=O)C=C(C(F)(F)F)N1Cc1ccccc1,155
17,CCc1ccc(-n2c(O)c(C(C)=O)c(=O)[nH]c2=O)cc1 (tested in a mixture with another compound),719
18,C=C(C=O)CC1CC(O)[C@]2(C)OC3CC4OC5C[C@]6(C)O[C@]7(C)CCC8OC9C[C@]%10(C)OC%11C(C)=CC(=O)OC%11CC%10OC9C[C@@H](C)C8OC7CC6O[C@]5(C)CC5OC5C4OC3CC2O1 (some centres undefined),139
19,CC1(C)C[C@H]2C=C(C=O)[C@]3(C=O)C[C@]3(C)[C@H]2C1,221
20,CN1CCN(c2ccc([N+](=O)[O-])c(NCc3ccco3)c2)CC1,109
21,CN1C2CCC1/C(=C/c1ccccn1)C(=O)/C2=C\c1ccccn1,271
22,CC(=O)OC(C)(C)/C=C/C(=O)[C@](C)(O)[C@H]1[C@H](O)C[C@@]2(C)[C@@H]3CC=C4[C@H](C[C@H](O)C(=O)C4(C)C)[C@]3(C)C(=O)C[C@]12C,573
23,C[C@H]1CCC/C=C/C2C[C@H](O)CC2[C@H](O)/C=C/C(=O)O1 (some centres undefined),248
24,CC(C)OCCCNC(=O)c1c(N)n(CC2CCCO2)c2nc3ccccc3nc12 (centres undefined),650
